According to the supplement of paper PMC3334620:
The full ranking holds about 33,000 sequences; the median of “E-score (-0.5 to 0.5)” is about -0.054, and the highest 2% start at about 0.39. Some of the results follow.

What follows are sequences tested against Ylr278c (UniProt Q05854) (assay: PBM E-score (8-mer binding enrichment) (E-score (-0.5 to 0.5)); higher = stronger / more preferred TF binding; most listed sequences are background and not binding sites). Conditions: protein concentration: 200 nM; construct: GST-DNA-binding domain.
Procedure, shortened: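 Universal all-10-mer Agilent arrays, double-stranded by primer extension on fresh or once-stripped slides, were probed with about 100-200 nM GST-tagged yeast transcription factors made by PURExpress. Fluorescent anti-GST detected bound protein, and masliner normalised the scans. E-scores from the Universal PBM Analysis Suite were given to each ungapped eight-base word pooled with its reverse complement.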

Sequence | PBM E-score
ATTCAGAA | -0.1
CGGCACTC | 0.227
CCGAAGGA | 0.221
CACGATCC | 0.00826
AGGGGCCC | -0.0472
GCACAAGC | -0.0871
CTAATTAG | -0.0975
TGATAGCA | -0.105
CTGTCCGC | 0.14
AAATGATA | 0.00643
ATGTAAAT | -0.0474
GACTTTCA | 0.0465
GACAACCC | 0.0814
AGCGGATG | 0.143
ATACACGG | -0.0179
ACAACCTA | -0.131
ACATGGCC | 0.0292
TTGACCAA | -0.221
CGAAGGAG | -0.00744
ACGAGTCG | -0.159
CGTAACAA | -0.0654
ATAAACTA | -0.0104

Sequence | PBM E-score
GAGAGACC | -0.15
ACTCGAAA | -0.108
ACGTCCGC | 0.299
TACATCTA | -0.0853
ACAACCGT | -0.251
GTCTCTGA | -0.165
CGCTTTAA | -0.0356
AATGTCAC | -0.168
ATTCTGTC | -0.0952
ACATAGCT | -0.22
GTTGTCAA | -0.148
GGAATACC | 0.286
AGAAAACC | -0.0761
GCTATTAA | -0.0985
CCCGGTCA | 0.259
GCACATGA | -0.191
TCACTTAA | -0.159
ACCATTAG | 0.0698
GTAATACA | -0.119
ATATTGAC | -0.0751
AAGCCCCT | 0.00156
CGACGTTA | 0.0873

Sequence | PBM E-score
ACTACGGC | 0.132
CAAGCGGC | 0.144
GACGCGGC | 0.079
ACTTGACA | -0.224
CTCTTTAC | -0.084
TCCCGAAA | 0.238
AATCGCCA | -0.132
AGTGGTAT | -0.175
TCAAGGAA | -0.142
AAGAGTGC | -0.17
ACAAGTAT | -0.035
AATTTGGT | -0.0243
ATGCTCCG | 0.425
ACCACCCA | -0.0952
AGACTTAC | -0.224
AATGGATG | -0.226
ACAGGTAA | -0.102
ACACAACA | -0.02
AATGTTTC | -0.00717
GTTCTGGA | -0.278
CTTCCCAA | -0.107
GATATAAC | -0.0237

Sequence | PBM E-score
GTGGGGGA | -0.225
ATCACCCG | 0.191
CGATTGGC | -0.0423
CTCGTCCC | -0.00145
CTCCAGCC | -0.0584
ATTATTTG | -0.04
ACCTTTCG | 0.0202
GAGTCCGA | 0.392
GCCTAAGA | -0.216
GTGACTAA | -0.0851
ACCCACGA | -0.121
GAGGCTGA | -0.299
ATATCTCA | 0.0231
GGCGAGTA | 0.0246
TACGAGTA | -0.0577
AAGTAAGC | -0.101
CCGAGGTC | 0.298
TCTCCTCA | -0.147
GGAGTCTA | -0.00849
ATCCTTAA | -0.336
CCGTCGAA | 0.118
AAATATTA | 0.0467

Sequence | PBM E-score
ACGAGGTA | -0.047
ATCAATCC | 0.0383
CATATTTC | 0.0331
CCGATTGC | 0.271
CGTTCCCA | -0.229
CAACAATG | -0.0382
CCCCATAG | -0.0583
GTGGACAC | -0.0491
ATAGTCCA | -0.109
AGCATCAG | -0.15
CTATAGGC | -0.116
CTTGAAAG | -0.221
CCACCGAG | -0.0139
GCGCGAGC | 0.113
ACACTATG | -0.147
ACTTGTAT | -0.19
GGGCAACC | -0.076
AGCTCAAG | -0.341
CCGCAAAC | 0.247
TACCCAAA | -0.088
GGGGTGAC | -0.0399
CTGAGTTC | 0.0225
